The record followed here is the supplement of paper PMC9446081.

In all, about 39,000 compounds went through this assay and about 220 (0.56%) showed activity. Some of the results follow.
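Also: static incubation at 37 °C against the wild-type strain, values averaged over two biological replicates.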

For the assay, the system named is Escherichia coli K-12 BW25113. Kind of assay: relative growth (OD600 normalised to plate interquartile mean) (fraction); higher = less growth inhibition, active = 0.2 or less. The following applies: 50 µM; LB; incubation time: overnight (16-24 h).
Turning to `Cc1ccc(S(=O)(=O)Nc2ccc3c(c2)C(=O)N([C@H](C)CO)C[C@H](C)[C@H](CN(C)C(=O)c2ccccc2)OCCCC[C@@H](C)O3)cc1`, the relative growth is inactive: 1.01. The value for `C[C@H]1CN([C@@H](C)CO)C(=O)c2cccc(NC(=O)Nc3ccc(C(F)(F)F)cc3)c2O[C@H]1CN(C)Cc1ccncc1` was inactive: 0.95.

With `C[C@H]1CN([C@@H](C)CO)C(=O)Cc2cc(NC(=O)CCN3CCOCC3)ccc2O[C@H]1CN(C)S(=O)(=O)c1ccc(Cl)cc1`, the relative growth was inactive: 0.996. The value for `O=C(C[C@H]1C[C@H]2c3cc(NC(=O)c4ccc5c(c4)OCO5)ccc3O[C@H]2[C@@H](CO)O1)NCCc1ccccc1` was inactive: 1.02; that for `Cc1cc(C(=O)Nc2cccc3c2O[C@@H](CN(C)C(=O)NC2CCCCC2)[C@@H](C)CN([C@H](C)CO)C3=O)n(C)n1` was inactive: 0.995; that for `COc1ccc(S(=O)(=O)Nc2ccc3c(c2)C(=O)N([C@@H](C)CO)C[C@H](C)[C@@H](CN(C)S(=O)(=O)c2cn(C)cn2)O3)cc1` was inactive: 0.966. For the molecule `Cc1ccc(S(=O)(=O)N(C)C[C@H]2Oc3c(NS(=O)(=O)c4cccs4)cccc3C(=O)N([C@H](C)CO)C[C@@H]2C)cc1`, the relative growth was inactive: 0.912. With `C[C@@H]1CN([C@H](C)CO)C(=O)c2cc(NC(=O)Nc3cccc4ccccc34)ccc2O[C@H]1CN(C)Cc1ccc(C(=O)O)cc1`, the relative growth is inactive: 0.994.

As to `COc1ccc2c3c(n(c2c1)C)[C@H](CO)N(CC1CCOCC1)C[C@]13CCN(CC1)C(=O)c1cnccn1`, the relative growth is inactive: 0.981. Under `CCn1cc(C(=O)O)c(=O)c2cc(F)c(N3CCNC(C)C3)c(F)c21.Cl` (configuration not stated) stands active: 0.0478; under `C[C@@H]1CN([C@@H](C)CO)C(=O)c2cc(NC(=O)Nc3ccc(C(F)(F)F)cc3)ccc2O[C@@H](C)CCCCO[C@@H]1CN(C)Cc1ccc(C(=O)O)cc1`, inactive: 0.975; under `C[C@@H]1CCCCO[C@H](CN(C)C(=O)Nc2cccc3ccccc23)[C@H](C)CN([C@@H](C)CO)C(=O)c2cc(NC(=O)C3CCCCC3)ccc2O1`, inactive: 1.02. Regarding `O=C(/C=C/c1ccc(O)c(O)c1)O[C@H]1[C@H](O)C[C@](OC(=O)/C=C/c2ccc(O)c(O)c2)(C(=O)O)C[C@H]1O`, the relative growth is inactive: 0.988. The value for `CCCCn1nc(C2CC2)nc1Cn1ncnn1` was inactive: 0.963; that for `COc1ccc(N2C[C@@H](O)Cn3c2nc2c3c(=O)[nH]c(=O)n2C)cc1` was inactive: 0.974.

`COc1ccc(NC(=O)Nc2ccc3c(c2)C(=O)N([C@@H](C)CO)C[C@H](C)[C@@H](CN(C)Cc2ccc(C(=O)O)cc2)OCCCC[C@H](C)O3)cc1`: the relative growth is inactive: 0.994.

On to `C[C@H]1CN([C@@H](C)CO)C(=O)Cc2cc(NC(=O)CCC(F)(F)F)ccc2O[C@H]1CN(C)C(=O)Nc1cccc2ccccc12`, for which the relative growth is inactive: 1.03. Under `C[C@H](CO)N1C[C@H](C)[C@@H](CN(C)S(=O)(=O)c2ccc(C(F)(F)F)cc2)OCc2ccccc2-c2c(n(C)c3ccccc23)C1=O` stands inactive: 1.01; under `Cc1noc(C)c1NC(=O)Nc1ccc2c(c1)CC(=O)N([C@@H](C)CO)C[C@H](C)[C@@H](CN(C)Cc1ccc(C(F)(F)F)cc1)O2`, inactive: 0.918. The value for `C=CC[C@H](CC(=O)N(CCO)Cc1ccccc1)C(=O)N[C@@H](COC(=O)[C@@H](CC=C)CC(=O)OC(C)(C)C)Cc1c[nH]c2ccccc12` was inactive: 1.09; that for `CCc1ccc(NC(=O)Cc2coc3ccc(C(C)C)cc23)cc1` was inactive: 1.06; that for `CC(C)NC(=O)Nc1ccc2c(c1)CC(=O)N([C@H](C)CO)C[C@H](C)[C@@H](CN(C)S(=O)(=O)c1ccccc1)O2` was inactive: 0.975. Turning to `Cc1ccc(S(=O)(=O)Nc2ccc3c(c2)C(=O)N([C@H](C)CO)C[C@H](C)[C@@H](CN(C)C(=O)Nc2c(C)noc2C)OCCCC[C@@H](C)O3)cc1`, the relative growth is inactive: 1.02.

`COc1ccc(NC(=O)N(C)C[C@@H]2OCCCC[C@@H](C)Oc3ccc(NS(=O)(=O)c4cccs4)cc3C(=O)N([C@H](C)CO)C[C@@H]2C)cc1`: the relative growth is inactive: 0.994.

As to `Cc1nccn1C[C@H](C)C(=O)O`, the relative growth was inactive: 1.01. Under `CC(C)CC#Cc1ccc2c(c1)O[C@@H](CN(C)S(=O)(=O)c1ccc(F)cc1)[C@H](C)CN([C@H](C)CO)S2(=O)=O` stands inactive: 1.06; under `C[C@@H]1CN([C@H](C)CO)C(=O)c2cccc(NC(=O)CCCCCC(=O)Nc3ccccc3N)c2O[C@@H]1CN(C)C(=O)Nc1ccc(C(F)(F)F)cc1`, inactive: 0.965; under `C[C@@H]1CCCCO[C@@H](CN(C)Cc2ccncc2)[C@H](C)CN([C@H](C)CO)C(=O)c2cc(NC(=O)Cc3ccccc3)ccc2O1`, inactive: 0.982. In the case of `C[C@H]1CN([C@@H](C)CO)C(=O)c2cc(NC(=O)Cc3ccccc3)ccc2O[C@H]1CN(C)S(=O)(=O)c1ccccc1`, the relative growth is inactive: 1.03. As to `Cc1noc(C)c1NC(=O)N(C)C[C@@H]1OCCCC[C@@H](C)Oc2ccc(NC(=O)NC3CCCCC3)cc2C(=O)N([C@@H](C)CO)C[C@H]1C`, the relative growth is inactive: 1.04. Under `Cc1cc(C)nc(C#N)n1` stands inactive: 1; under `Cc1ccc(S(=O)(=O)Nc2ccc3c(c2)CC(=O)N([C@H](C)CO)C[C@H](C)[C@@H](CN(C)Cc2ccc(Oc4ccccc4)cc2)O3)cc1`, inactive: 0.99. For `COc1cccc(-c2cn(CC[C@@H]3CC[C@@H](NS(=O)(=O)c4ccccc4Cl)[C@H](CO)O3)nn2)c1`, the relative growth is inactive: 1.07. Turning to `C[C@@H]1CN([C@H](C)CO)C(=O)c2cccc(NC(=O)Nc3ccc(C(F)(F)F)cc3)c2O[C@@H]1CN(C)S(=O)(=O)c1ccc(F)cc1`, the relative growth is inactive: 0.854. Under `C[C@H](CO)N1C[C@H](C)[C@@H](CN(C)Cc2ccc(C(F)(F)F)cc2)Oc2ccc(NC(=O)Nc3cccc4ccccc34)cc2CC1=O` stands inactive: 1.09; under `C[C@@H]1CN([C@@H](C)CO)C(=O)c2cc(NS(=O)(=O)c3cn(C)cn3)ccc2O[C@H]1CN(C)Cc1ccc(C(=O)Nc2ccccc2N)cc1`, inactive: 1; under `O=C1C(=Cc2cccs2)CCCC1=Cc1cccs1`, inactive: 1.06.
